# Results: the BET-seq Pho4 binding data (Le et al. 2018)
# The list shows a part of the results. Values were computed here from the reads of four pooled replicates and scatter widely.
# Molecular target: T1, Pho4 (S. cerevisiae) (UniProt P07270)
# T1 sequence: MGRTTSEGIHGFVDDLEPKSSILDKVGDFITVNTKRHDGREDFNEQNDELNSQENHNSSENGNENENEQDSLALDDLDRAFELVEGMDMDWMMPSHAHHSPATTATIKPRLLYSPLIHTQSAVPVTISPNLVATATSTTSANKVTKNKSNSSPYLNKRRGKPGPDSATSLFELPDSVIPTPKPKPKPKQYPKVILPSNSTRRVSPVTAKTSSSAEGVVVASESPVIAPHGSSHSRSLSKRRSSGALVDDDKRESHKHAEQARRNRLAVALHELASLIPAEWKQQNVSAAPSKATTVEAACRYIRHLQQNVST
# Experiment: relative binding free energy (BET-seq); higher = weaker binding
# Conditions: reference: library average
row,Sequence,relative binding free energy
1,GGCATCACGTGTATTT,0.24 kcal/mol
2,TAAGGCACGTGGCGGA,-0.27 kcal/mol
3,GGGTTCACGTGCATAA,0.34 kcal/mol
4,TCTGGCACGTGAGTTT,0.01 kcal/mol
5,GGGTTCACGTGTTAAT,0.33 kcal/mol
6,TAATACACGTGGGGGC,0.06 kcal/mol
7,CACTGCACGTGGGGGA,-0.1 kcal/mol
8,GAGACCACGTGTGTGG,0.13 kcal/mol
9,GAGATCACGTGCGGGG,-0.08 kcal/mol
10,AGTTTCACGTGTGGGT,0.22 kcal/mol
11,GGGTCCACGTGCATGT,-0.04 kcal/mol
12,TTGAGCACGTGGTGCG,-0.08 kcal/mol
13,CGGGACACGTGAGGTG,0.14 kcal/mol
14,TTGAGCACGTGGGAGT,-0.08 kcal/mol
15,CAGTTCACGTGATTGT,0.34 kcal/mol
16,AATTTCACGTGGATCG,0.39 kcal/mol
17,TCTGGCACGTGAGGAA,0.15 kcal/mol
18,TTTCGCACGTGGTTAT,-0.18 kcal/mol
19,CGGGTCACGTGAGTGG,0.18 kcal/mol
20,GTAACCACGTGTGTAT,0.06 kcal/mol
21,GTAGTCACGTGGCCGT,0.01 kcal/mol
22,TAATCCACGTGTGGTA,0.13 kcal/mol
23,GGCTACACGTGGATGG,0.11 kcal/mol
24,TTTTGCACGTGGCAGT,-0.01 kcal/mol
25,GTTGACACGTGATGGT,0.24 kcal/mol
26,AGTTTCACGTGGAAGT,0.2 kcal/mol

row,Sequence,relative binding free energy
1,TGGAACACGTGGGGTA,-0.04 kcal/mol
2,GTCGTCACGTGTTGGT,0.16 kcal/mol
3,TAAATCACGTGGTGTT,0.13 kcal/mol
4,AGGTGCACGTGGGTAA,-0.18 kcal/mol
5,TGAGTCACGTGATATA,0.08 kcal/mol
6,GCGTGCACGTGGGATT,-0.12 kcal/mol
7,AGGATCACGTGGGCTA,0.09 kcal/mol
8,AGTAACACGTGCTTGG,-0.06 kcal/mol
9,TTGGGCACGTGTGCCA,-0.1 kcal/mol
10,GGTAGCACGTGTAGGC,-0.11 kcal/mol
11,TCTTTCACGTGTCTGG,0.38 kcal/mol
12,GGCTTCACGTGGTAGT,0.25 kcal/mol
13,TGGATCACGTGCACTG,0.33 kcal/mol
14,AGTCTCACGTGTTTTG,0.17 kcal/mol
15,GTAGCCACGTGTCGGG,0.02 kcal/mol
16,ATCGTCACGTGGTTGT,0.08 kcal/mol
17,GGGGCCACGTGGTAGG,-0.12 kcal/mol
18,AAATTCACGTGTGTTC,0.2 kcal/mol
19,AATTGCACGTGAGAAG,0.22 kcal/mol
20,TATTGCACGTGAGGCT,0.1 kcal/mol
21,AGTAGCACGTGTTTGA,-0.12 kcal/mol
22,GATTGCACGTGTACGT,0.07 kcal/mol
23,TGTTTCACGTGATATG,0.2 kcal/mol
24,GTATTCACGTGTGCTT,0.24 kcal/mol
25,TGTTCCACGTGCTTTG,-0.02 kcal/mol
26,GGTGTCACGTGGGGTA,-0.04 kcal/mol

row,Sequence,relative binding free energy
1,ATTGACACGTGGTGGT,-0.03 kcal/mol
2,CTAGGCACGTGGCGGC,-0.14 kcal/mol
3,TTGTACACGTGTCTAT,0.1 kcal/mol
4,AGACTCACGTGGTTAG,0.19 kcal/mol
5,TTTTACACGTGGTAGA,0.08 kcal/mol
6,AAGATCACGTGATGCG,0.33 kcal/mol
7,AAGGTCACGTGGGTTT,0.02 kcal/mol
8,TGTTTCACGTGTTCGG,0.29 kcal/mol
9,AGTTACACGTGAGGGA,0.11 kcal/mol
10,AGGTGCACGTGCATCG,0.03 kcal/mol
11,AGTTACACGTGGCTGT,-0.08 kcal/mol
12,AAGTGCACGTGTGTTC,0.07 kcal/mol
13,AGGTGCACGTGGAAGT,0.01 kcal/mol
14,TCCAGCACGTGTTGTG,-0.11 kcal/mol
15,TGCTGCACGTGGTGCT,0 kcal/mol
16,GGACGCACGTGGTAGT,-0.14 kcal/mol
17,GGCGTCACGTGTTAGG,0.13 kcal/mol
18,AAGGTCACGTGTCGTT,0.11 kcal/mol
19,TGCGACACGTGAGTAT,0.24 kcal/mol
20,AGGCGCACGTGTGGGC,-0.11 kcal/mol
21,AGTTTCACGTGGGTAC,0.13 kcal/mol
22,GTGTGCACGTGTAGGC,-0.02 kcal/mol
23,AGATCCACGTGTGTTG,0.05 kcal/mol
24,TGAGGCACGTGGCGCA,-0.18 kcal/mol
25,TTGATCACGTGAAATG,0.3 kcal/mol
26,GTTAGCACGTGGCAGG,-0.1 kcal/mol

row,Sequence,relative binding free energy
1,ATGGTCACGTGTGCGG,0.07 kcal/mol
2,AGTAGCACGTGAGGAG,0.21 kcal/mol
3,TCTATCACGTGGGGCG,-0.01 kcal/mol
4,TTAATCACGTGATGCG,0.08 kcal/mol
5,GTAGTCACGTGTACGG,0.11 kcal/mol
6,GCCGTCACGTGGGTAG,-0.1 kcal/mol
7,TGGCTCACGTGAAGGT,0.27 kcal/mol
8,GGATTCACGTGAGCCG,0.49 kcal/mol
9,ATGGACACGTGTCGTG,-0.03 kcal/mol
10,TTTGCCACGTGTTCAT,0.02 kcal/mol
11,TTGTGCACGTGGGCAA,-0.06 kcal/mol
12,AGGAGCACGTGTAATT,0.12 kcal/mol
13,GTGATCACGTGGTTCG,0.15 kcal/mol
14,ATACTCACGTGGAGGG,0.02 kcal/mol
15,AAAGGCACGTGTGCTG,-0.02 kcal/mol
16,GTCTGCACGTGACGGG,0.12 kcal/mol
17,TTTGACACGTGTGTGG,0.04 kcal/mol
18,AACTTCACGTGATGGT,0.33 kcal/mol
19,GGGGGCACGTGTTAAT,-0.02 kcal/mol
20,TTTGTCACGTGTCAGC,0.08 kcal/mol
21,GTTGGCACGTGCGAGT,0.03 kcal/mol
22,AGTATCACGTGCTGTG,0.16 kcal/mol
23,AGTATCACGTGCGGGT,0.17 kcal/mol
24,CATTGCACGTGGCTTT,0.05 kcal/mol
25,GATAACACGTGAGAGT,0.39 kcal/mol
26,ACTGGCACGTGTGTAA,-0.06 kcal/mol

row,Sequence,relative binding free energy
1,CATTGCACGTGTGGCG,0.1 kcal/mol
2,AATATCACGTGTATGC,0.16 kcal/mol
3,TTTTTCACGTGCGCGC,0.33 kcal/mol
4,TGTGTCACGTGTCGGG,0.18 kcal/mol
5,GGGGTCACGTGTCTTT,0.36 kcal/mol
6,TGGCACACGTGTGTTA,0.02 kcal/mol
7,GGGTTCACGTGGGAGC,0.3 kcal/mol
8,GTTGTCACGTGTACTA,0.14 kcal/mol
9,TATGCCACGTGTAGTT,-0.01 kcal/mol
10,TTTCGCACGTGAGCGT,0.17 kcal/mol
11,ACGTGCACGTGGGAGA,0.01 kcal/mol
12,GTATTCACGTGGGCGT,0.08 kcal/mol
13,GTTTACACGTGAGTCA,0.32 kcal/mol
14,TACAGCACGTGGGAGG,-0.21 kcal/mol
15,ATGTTCACGTGCTAAG,0.34 kcal/mol
16,TGGCGCACGTGAGCGG,0 kcal/mol
17,ATGTTCACGTGAATGG,0.4 kcal/mol
18,TTTTACACGTGCATGT,0.11 kcal/mol
19,AAGTGCACGTGAACGG,0.15 kcal/mol
20,TAGGACACGTGATTAG,-0.01 kcal/mol
21,GAGTACACGTGAGAGG,0.31 kcal/mol
22,TTATACACGTGGATTG,0.05 kcal/mol
23,CTAAGCACGTGGTGGA,-0.16 kcal/mol
24,TGTGGCACGTGGGGAG,-0.13 kcal/mol
25,TAGTTCACGTGCAGGT,0.3 kcal/mol
26,TGGGGCACGTGTGGGA,0 kcal/mol

row,Sequence,relative binding free energy
1,AGTGACACGTGTAGAG,-0.03 kcal/mol
2,GTTCGCACGTGGATGG,-0.01 kcal/mol
3,AGTTACACGTGTCTGC,0.35 kcal/mol
4,TAAAACACGTGTGGAT,0.07 kcal/mol
5,TATGACACGTGTATTT,0.15 kcal/mol
6,AGGTTCACGTGGAGAC,0.31 kcal/mol
7,GTCTGCACGTGTTGAA,0.2 kcal/mol
8,AAATTCACGTGTGTGG,0.2 kcal/mol
9,TGTCGCACGTGAGAGT,0.15 kcal/mol
10,CGGGTCACGTGGGGCA,-0.11 kcal/mol
11,AGGCGCACGTGGTGTT,-0.24 kcal/mol
12,TCGTTCACGTGGGAAA,0.25 kcal/mol
13,TTATTCACGTGGCATT,-0.04 kcal/mol
14,AGAATCACGTGTTGAG,0.22 kcal/mol
15,GGTCTCACGTGTTGGA,0.31 kcal/mol
16,GGGTGCACGTGTAAGG,0.18 kcal/mol
17,ACGTGCACGTGTGTTC,0.16 kcal/mol
18,TGTCGCACGTGTTTTT,-0.02 kcal/mol
19,AGGTTCACGTGGGGGG,0.16 kcal/mol
20,TGTTACACGTGCTTAG,-0.02 kcal/mol
21,GGGAGCACGTGCTTTG,-0.06 kcal/mol
22,GTTCCCACGTGGTGTG,-0.1 kcal/mol
23,TGGGACACGTGCGTAT,-0.03 kcal/mol
24,TAGTTCACGTGTGTTC,0.3 kcal/mol
25,GTTTTCACGTGCGGCG,0.26 kcal/mol
26,GGTGGCACGTGGATTA,0.03 kcal/mol

row,Sequence,relative binding free energy
1,TAAAGCACGTGTGTGG,-0.15 kcal/mol
2,TGTTGCACGTGGCTGC,-0.2 kcal/mol
3,TGGGTCACGTGTACTT,0.13 kcal/mol
4,GCTTACACGTGTGGCT,0.28 kcal/mol
5,ATATTCACGTGTCAGT,0.32 kcal/mol
6,AAAGTCACGTGATAGG,0.28 kcal/mol
7,TAAGGCACGTGTGAGA,-0.04 kcal/mol
8,GATATCACGTGTTGCG,0.19 kcal/mol
9,CTAGTCACGTGGGTCT,0.01 kcal/mol
10,GGGTCCACGTGAGTGA,0.16 kcal/mol
11,GTGGCCACGTGCTGGG,-0.04 kcal/mol
12,AGGAGCACGTGGAGAT,0 kcal/mol
13,AATAACACGTGGGTAG,-0.11 kcal/mol
14,ATTGACACGTGTGGAA,-0.03 kcal/mol
15,CGGTGCACGTGGGGTC,-0.12 kcal/mol
16,TTGCTCACGTGGGGTG,0.09 kcal/mol
17,ATGTGCACGTGATGTT,0.1 kcal/mol
18,TGGCGCACGTGAAGTA,0.23 kcal/mol
19,TTCGGCACGTGTTAAA,0.04 kcal/mol
20,TCATACACGTGGGTTG,-0.29 kcal/mol
21,ATTTACACGTGGCTAG,0.05 kcal/mol
22,AATGTCACGTGGCGAT,0 kcal/mol
23,AAATGCACGTGTTGAT,-0.03 kcal/mol
24,CGTTGCACGTGCGGTG,-0.15 kcal/mol
25,ACGGACACGTGTTGTT,0.06 kcal/mol
26,AAGAGCACGTGGGGGG,-0.25 kcal/mol

row,Sequence,relative binding free energy
1,ACATTCACGTGCTGGG,0.22 kcal/mol
2,TAGAACACGTGTTGGG,-0.03 kcal/mol
3,TGGGGCACGTGCGGGA,-0.17 kcal/mol
4,TGACACACGTGGGTTG,-0.12 kcal/mol
5,AGGCTCACGTGTGGTC,0.2 kcal/mol
6,TTTGTCACGTGAGAGG,0.16 kcal/mol
7,TATGACACGTGGGGAG,-0.03 kcal/mol
8,CTGGGCACGTGTTGAC,0.07 kcal/mol
9,GTATGCACGTGATGGG,0.19 kcal/mol
10,GAGGTCACGTGATTAT,0.24 kcal/mol
11,TACGTCACGTGAGGAT,0.35 kcal/mol
12,GGCCGCACGTGGCTGG,-0.1 kcal/mol
13,TATGTCACGTGTGTAA,0.1 kcal/mol
14,GTAGTCACGTGTCGCG,0.24 kcal/mol
15,TGTAGCACGTGACATT,0.02 kcal/mol
16,TGCTCCACGTGAGTGG,0.2 kcal/mol
17,TTTATCACGTGGTTCA,0.07 kcal/mol
18,TAGTTCACGTGAAAGG,0.21 kcal/mol
19,ATAATCACGTGTATGG,0.15 kcal/mol
20,TTTATCACGTGACTTG,0.21 kcal/mol
21,ACTGGCACGTGTTTGA,-0.1 kcal/mol
22,GGCTGCACGTGGTCGT,-0.08 kcal/mol
23,GGACCCACGTGGGGGG,-0.34 kcal/mol
24,TTACGCACGTGTGTTA,-0.11 kcal/mol
25,CTTACCACGTGTGTGT,0 kcal/mol
26,TGGGTCACGTGATCGA,0.28 kcal/mol

row,Sequence,relative binding free energy
1,GATAACACGTGCGGTG,0.06 kcal/mol
2,CGGTTCACGTGGAGAG,0.24 kcal/mol
3,TTAATCACGTGAGTTG,0.35 kcal/mol
4,TGAAACACGTGATTAT,0.33 kcal/mol
5,GTGAGCACGTGGGATA,-0.22 kcal/mol
6,GTTTACACGTGGACTG,0.11 kcal/mol
7,AATTACACGTGGGCGT,-0.03 kcal/mol
8,AGTGTCACGTGTGGAG,0.09 kcal/mol
9,GGTTCCACGTGATATG,0.22 kcal/mol
10,CATTTCACGTGTGAGC,0.47 kcal/mol
11,AAAGTCACGTGTTATA,-0.02 kcal/mol
12,CGTGTCACGTGAAGTG,0.24 kcal/mol
13,GTAGGCACGTGAGTTT,0.18 kcal/mol
14,GTGTTCACGTGCGGGG,0.2 kcal/mol
15,TGTGTCACGTGTGTAC,0.06 kcal/mol
16,GGATGCACGTGTGAAG,0.05 kcal/mol
17,AGAGACACGTGGGTTG,-0.1 kcal/mol
18,ACTTGCACGTGTTTTT,0.09 kcal/mol
19,TGGTGCACGTGAAAGA,0.12 kcal/mol
20,AGGACCACGTGAGTGG,0.07 kcal/mol
21,AATTTCACGTGAATTA,0.37 kcal/mol
22,TAGTTCACGTGGTGTC,0.17 kcal/mol
